Test results as given in the supplement of paper PMC3334620.
The full ranking holds about 33,000 sequences; the median of “E-score (-0.5 to 0.5)” is about -0.036, and the highest 2% start at about 0.37. Some of the results follow.

What follows are sequences tested against T1, Yer064c (UniProt P40041) (assay: PBM E-score (8-mer binding enrichment) (E-score (-0.5 to 0.5)); higher = stronger / more preferred TF binding; most listed sequences are background and not binding sites). Conditions: protein concentration: 200 nM; construct: GST-full length.
T1 sequence: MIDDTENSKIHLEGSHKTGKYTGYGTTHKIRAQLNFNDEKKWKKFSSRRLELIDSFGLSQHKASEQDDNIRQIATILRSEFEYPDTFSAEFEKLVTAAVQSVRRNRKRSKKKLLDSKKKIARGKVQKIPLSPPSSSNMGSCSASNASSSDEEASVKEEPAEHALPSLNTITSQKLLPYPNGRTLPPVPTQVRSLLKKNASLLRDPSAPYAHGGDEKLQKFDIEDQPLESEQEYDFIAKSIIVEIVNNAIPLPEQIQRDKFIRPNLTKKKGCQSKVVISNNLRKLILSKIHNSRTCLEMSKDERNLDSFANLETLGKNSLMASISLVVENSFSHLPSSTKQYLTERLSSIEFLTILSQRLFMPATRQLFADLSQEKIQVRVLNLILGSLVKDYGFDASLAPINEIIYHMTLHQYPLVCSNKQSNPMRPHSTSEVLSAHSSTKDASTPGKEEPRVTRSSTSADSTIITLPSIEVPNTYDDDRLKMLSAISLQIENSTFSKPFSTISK
How it was run: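 Detection of bound protein used fluorescent anti-GST, with scans normalised by masliner. The proteins were GST-tagged yeast transcription factors applied at about 100-200 nM to universal all-10-mer Agilent arrays made double-stranded by primer extension. Each ungapped eight-base word, pooled with its reverse complement, was scored with an E-score from the Universal PBM Analysis Suite.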

Sequence | PBM E-score
AATTTCAT | -0.0112
CGGGACCA | -0.208
AAGTCCCA | -0.11
CAACAGTA | -0.0286
AATATTCA | 0.0631
CTGAGTGA | 0.238
AGTAGATC | -0.00683
CAGTCAGA | 0.361
CCGTATAA | 0.0587
ACAGAGCT | -0.202
CCGGGGGC | -0.128
GACTATAC | 0.413
ACGTTTTA | -0.0181
TACCTTAA | 0.0326
ACAAATAG | -0.0418
CCCGTTTA | 0.00269
CACCCCAA | -0.0551
CCCTGCCA | 0.0354
CCAGGCAG | -0.189
AAATCGTT | 0.0589
GGTATTGA | 0.056
AATACACT | 0.145
GCCTTTAC | -0.17
GGTCTATA | -0.0474
AGTGGGCC | -0.307

Sequence | PBM E-score
GTTGGGCA | -0.102
CTTGCCAC | 0.0476
AGTGCTTA | -0.16
GTGTAAAA | -0.148
ATTTTAAA | 0.164
CTCCTATC | -0.0814
ATGCGGGA | -0.0255
AAGTAGGT | -0.0512
CGGATTGC | -0.225
AGCGCAAC | -0.19
CACTTCAC | -0.142
CCATTCCG | -0.186
ATGTTCTG | -0.115
TCAAACAA | 0.103
CTTTGAAC | -0.0573
AAGTCAAG | 0.283
GCATTAGC | -0.0698
CGGTCGAA | -0.249
ATTCTCCC | -0.0279
GGACCTCC | -0.399
CAGTCTGA | 0.0593
ACAGAGTA | 0.0495
GGGTACCA | -0.217
ATCGCCTA | -0.0235
GAGAAATA | 0.0333

Sequence | PBM E-score
AATAAGGC | -0.356
ATCCAGAA | 0.0693
ATTAAGAA | 0.125
CGGATGAG | 0.22
AGACAACG | -0.24
ACGGTAGA | -0.12
AATTATAC | -0.109
AAAAGAGA | 0.0277
CCTACACA | 0.0322
ACCCATCG | 0.16
ACCATCCG | 0.149
ACTTTGCG | 0.0479
ATGAGCAG | -0.103
TCAGCTGA | 0.248
ATGCCGGG | -0.264
CGAGTTTA | -0.0607
AACTTTGC | -0.113
GTTGCTTA | -0.0566
AACATCCG | -0.233
GCGTGTTA | -0.0117
CCCTAACG | -0.138
AAACCGAA | 0.0673
CCAAATTA | 0.162
CCACTTTA | -0.0244
CTGAGGTA | 0.212

Sequence | PBM E-score
ACACATAT | 0.104
CACTAAGG | 0.0367
GCGTGATA | 0.00442
CAATGACC | 0.0491
AATAGCCG | -0.128
AAAGTGCC | -0.0752
CATTGTTC | -0.177
GCTATTGA | -0.0582
CACGGATA | 0.0811
ACAGTGCA | -0.164
ACTTCATA | -0.0355
CCAGAGTA | -0.0992
CTGCCAGC | -0.104
ACTGCAAG | -0.0713
GGAGAGTA | -0.0137
TCTTAGAA | 0.141
CACTTATA | 0.0646
ACTTTTGA | 0.0751
ACCATCGC | 0.178
ACAATACG | -0.187
ACACACTG | 0.0265
CGACTTCA | 0.226
AGGATTGG | 0.0372
CCCAACCG | -0.132
CACAAGTA | 0.0928

Sequence | PBM E-score
AGAAGCAA | -0.00856
AGAGATCG | -0.15
AACCGCTC | 0.0832
CTAAGGCC | -0.077
CATGTAAG | -0.068
GCCTCGCA | -0.00344
AATCCACT | -0.0125
CCGAGGAA | -0.258
ACGTGTCT | 0.0182
CCAGGGAA | -0.268
GTGTCACA | 0.0892
ACGTTACC | -0.254
TGGGTTAA | 0.0487
CGATGGGA | -0.1
ACACCTGG | -0.033
GAAGGTCC | -0.197
ATGGTTCG | 0.0445
GGTCAATA | 0.108
ACGACGCG | -0.0207
ACGTACAG | -0.237
GCAGCAGC | -0.189
TAGACTAA | 0.3
AGGAGATG | 0.0306
GCACATCA | 0.0514
CACTGTGG | -0.177

Sequence | PBM E-score
GGGCCAAA | -0.0926
CGTTGATA | 0.0048
ATTCAATC | 0.308
GTTCCAGA | -0.164
AGTAAGGC | -0.146
CCGGAAGA | -0.0156
GAGTTGGC | -0.0416
CCCCAATA | -0.218
AACCGACG | -0.185
AAACCATC | 0.191
AGTTCTAA | 0.16
AGTGACTC | 0.486
ACCACGCA | 0.00876
CATACGCC | -0.136
CTAGTGTC | -0.0221
AATTAATT | 0.177
GTTCTCGA | 0.0156
AGGACGTG | -0.126
AGGCCCCC | -0.473
ATCCGGGC | -0.228
AATCCCCG | -0.0169
GTTCGATA | -0.107
TAAGTCGA | 0.103
AGAGAGTG | -0.104
ACCTTGGA | -0.0702

Sequence | PBM E-score
AAAGGTCC | -0.197
ACGTGAGA | -0.125
CTGGATAA | -0.00609
GCTTTTTA | -0.0979
ACTTATGA | 0.304
ACCTCCAG | -0.226
ACGGGTAG | 0.0544
CGACAGGC | -0.121
CAGGAACG | -0.305
ATGTACGA | -0.174
AAGCTATC | 0.06
AAAAGCGT | 0.0573
GCCATGAC | 0.307
GTAATTCA | 0.0337
CTGAGAGA | -0.0026
ATCAGTGC | 0.153
GTAACCGA | -0.0287
ATGAAGTG | -0.0985
CATCTTGC | 0.112
ACCGCAAT | 0.146
CCACAGCA | -0.173
AGCGTAAA | 0.126
